The other results are listed elsewhere or left out. The full chains were built here from the parent and the listed change. Values near 0.05 are background.
B1: TEV protease; numbered along this chain (parent)
chain: MGESLFKGPRDYNPISSSICHLTNESDGHTTSLYGIGFGPFIITNKHLFRRNNGTLVVQSLHGVFKVKDTTTLQQHLVDGRDMIIIRMPKDFPPFPQKLKFREPQREERICLVTTNFQTKSMSSMVSDTSCTFPSGDGIFWKHWIQTKDGQCGSPLVSTRDGFIVGIHSASNFTNTNNYFTSVPKNFMELLTNQEAQQWVSGWRLNADSVLWGGHKVFMVKPEEPFQPVKEATQL

Variants of: B1
Assay: raw area under fraction-flipped curve 0-4 h after induction (AUC4h, not background-subtracted), DNA-recorder readout of cleavage of the substrate (dimensionless); higher = more cleavage of the substrate by the protease variant
Settings: temperature: 34 °C; time window: 0-4 h after rhamnose induction
Procedure: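 In vivo DNA recorder in E. coli TOP10(DE3) ΔrhaA at 34 °C. Each TEVp single-site mutant (parent TEVp 0) is paired with a single-site variant of the 7-mer TEVs (canonical ENLYFQ|S). The substrate sits between flexible linkers in a Bxb1-sfGFP-TEVs-SsrA fusion, so cleavage stabilises Bxb1 and speeds flipping of a recombination array, read by NGS. The value is the raw area under the fraction-flipped curve over 0-4 h after rhamnose induction (AUC4h), with ≥20 reads per time point. It is not background-subtracted; inactive controls average about 0.047.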
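Note: Bxb1 expression induced with 0.2% (w/v) L-rhamnose at OD600 near 0.5, cultures sampled hourly, flipped fraction per protease–substrate barcode pair counted by paired-end Illumina sequencing.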

Variant	area with substrate EALYFQS	area with substrate ECLYFQS	area with substrate EDLYFQS	area with substrate EELYFQS	area with substrate EHLYFQS	area with substrate EKLYFQS	area with substrate ELLYFQS	area with substrate EMLYFQS	area with substrate EQLYFQS	area with substrate ERLYFQS	area with substrate ESLYFQS	area with substrate ETLYFQS	area with substrate EVLYFQS	area with substrate EGLYFQS	area with substrate EILYFQS	area with substrate EPLYFQS	area with substrate EWLYFQS	area with substrate EYLYFQS	area with substrate EFLYFQS
MGHSLFKGPRDYNPISSSICHLTNESDGHTTSLYGIGFGPFIITNKHLFRRNNGTLVVQSLHGVFKVKDTTTLQQHLVDGRDMIIIRMPKDFPPFPQKLKFREPQREERICLVTTNFQTKSMSSMVSDTSCTFPSGDGIFWKHWIQTKDGQCGSPLVSTRDGFIVGIHSASNFTNTNNYFTSVPKNFMELLTNQEAQQWVSGWRLNADSVLWGGHKVFMVKPEEPFQPVKEATQL [E3H]	0.132	0.108	0.127	0.0898	0.0847	0.0635	0.0744	0.121	0.121	0.139	0.116	0.13	0.118	–	–	–	–	–	–
MGMSLFKGPRDYNPISSSICHLTNESDGHTTSLYGIGFGPFIITNKHLFRRNNGTLVVQSLHGVFKVKDTTTLQQHLVDGRDMIIIRMPKDFPPFPQKLKFREPQREERICLVTTNFQTKSMSSMVSDTSCTFPSGDGIFWKHWIQTKDGQCGSPLVSTRDGFIVGIHSASNFTNTNNYFTSVPKNFMELLTNQEAQQWVSGWRLNADSVLWGGHKVFMVKPEEPFQPVKEATQL [E3M]	0.139	0.122	0.151	0.194	0.129	–	0.115	–	0.155	0.143	0.137	–	0.111	0.123	0.0847	0.163	0.143	–	–
MGQSLFKGPRDYNPISSSICHLTNESDGHTTSLYGIGFGPFIITNKHLFRRNNGTLVVQSLHGVFKVKDTTTLQQHLVDGRDMIIIRMPKDFPPFPQKLKFREPQREERICLVTTNFQTKSMSSMVSDTSCTFPSGDGIFWKHWIQTKDGQCGSPLVSTRDGFIVGIHSASNFTNTNNYFTSVPKNFMELLTNQEAQQWVSGWRLNADSVLWGGHKVFMVKPEEPFQPVKEATQL [E3Q]	0.113	0.106	0.0937	–	0.103	0.0794	0.0918	0.0907	–	0.0743	0.0995	–	0.0866	0.107	–	–	0.0771	0.116	–
MGECLFKGPRDYNPISSSICHLTNESDGHTTSLYGIGFGPFIITNKHLFRRNNGTLVVQSLHGVFKVKDTTTLQQHLVDGRDMIIIRMPKDFPPFPQKLKFREPQREERICLVTTNFQTKSMSSMVSDTSCTFPSGDGIFWKHWIQTKDGQCGSPLVSTRDGFIVGIHSASNFTNTNNYFTSVPKNFMELLTNQEAQQWVSGWRLNADSVLWGGHKVFMVKPEEPFQPVKEATQL [S4C]	0.0934	0.0781	0.112	–	0.0828	0.088	0.0809	0.0877	0.0755	0.0703	0.0956	0.0997	0.0852	0.0718	0.0689	0.0851	0.0736	0.0874	0.0936
MGEHLFKGPRDYNPISSSICHLTNESDGHTTSLYGIGFGPFIITNKHLFRRNNGTLVVQSLHGVFKVKDTTTLQQHLVDGRDMIIIRMPKDFPPFPQKLKFREPQREERICLVTTNFQTKSMSSMVSDTSCTFPSGDGIFWKHWIQTKDGQCGSPLVSTRDGFIVGIHSASNFTNTNNYFTSVPKNFMELLTNQEAQQWVSGWRLNADSVLWGGHKVFMVKPEEPFQPVKEATQL [S4H]	0.147	0.131	0.112	0.185	0.135	0.162	–	0.147	0.129	0.111	0.125	0.124	0.115	0.173	0.115	–	0.0925	0.207	–
MGESLFDGPRDYNPISSSICHLTNESDGHTTSLYGIGFGPFIITNKHLFRRNNGTLVVQSLHGVFKVKDTTTLQQHLVDGRDMIIIRMPKDFPPFPQKLKFREPQREERICLVTTNFQTKSMSSMVSDTSCTFPSGDGIFWKHWIQTKDGQCGSPLVSTRDGFIVGIHSASNFTNTNNYFTSVPKNFMELLTNQEAQQWVSGWRLNADSVLWGGHKVFMVKPEEPFQPVKEATQL [K7D]	0.107	0.0743	0.0663	0.111	0.0822	–	0.101	0.104	0.0962	0.0956	0.105	–	0.0848	–	–	0.0767	0.101	–	–
MGESLFKGFRDYNPISSSICHLTNESDGHTTSLYGIGFGPFIITNKHLFRRNNGTLVVQSLHGVFKVKDTTTLQQHLVDGRDMIIIRMPKDFPPFPQKLKFREPQREERICLVTTNFQTKSMSSMVSDTSCTFPSGDGIFWKHWIQTKDGQCGSPLVSTRDGFIVGIHSASNFTNTNNYFTSVPKNFMELLTNQEAQQWVSGWRLNADSVLWGGHKVFMVKPEEPFQPVKEATQL [P9F]	0.0895	0.0617	0.0627	0.0683	0.062	–	0.0488	0.0642	0.0592	0.0576	0.0676	–	0.0649	0.0545	0.0577	–	0.0487	–	0.0563
MGESLFKGLRDYNPISSSICHLTNESDGHTTSLYGIGFGPFIITNKHLFRRNNGTLVVQSLHGVFKVKDTTTLQQHLVDGRDMIIIRMPKDFPPFPQKLKFREPQREERICLVTTNFQTKSMSSMVSDTSCTFPSGDGIFWKHWIQTKDGQCGSPLVSTRDGFIVGIHSASNFTNTNNYFTSVPKNFMELLTNQEAQQWVSGWRLNADSVLWGGHKVFMVKPEEPFQPVKEATQL [P9L]	0.172	0.128	0.119	0.105	0.104	0.0807	0.144	–	–	0.11	0.127	–	0.114	0.106	0.0913	0.136	0.127	0.117	–
MGESLFKGPMDYNPISSSICHLTNESDGHTTSLYGIGFGPFIITNKHLFRRNNGTLVVQSLHGVFKVKDTTTLQQHLVDGRDMIIIRMPKDFPPFPQKLKFREPQREERICLVTTNFQTKSMSSMVSDTSCTFPSGDGIFWKHWIQTKDGQCGSPLVSTRDGFIVGIHSASNFTNTNNYFTSVPKNFMELLTNQEAQQWVSGWRLNADSVLWGGHKVFMVKPEEPFQPVKEATQL [R10M]	0.126	0.114	0.158	0.13	0.127	–	–	–	0.137	–	–	0.116	0.116	0.0961	–	0.134	–	–	–

— the supplement of paper PMC12217912
